{
  "source": "PubChem BioAssay AID686971",
  "about": "(National Center for Advancing Translational Sciences (NCATS), 2013)",
  "note": "The campaign covered roughly 360,000 compounds. About 7,500 (2.1%) were called active. The inconclusive results got no clear call from the source; some entries with a clear call stand among them for comparison. Calls follow the shape of the dose curve; as a rule, active = well fitted cell-killing curve with a large enough effect; inconclusive = small, poorly fitted or top-dose-only effect, or effect the other way, or another doubt; inactive = no such curve, though single readings can be large or run the other way. Potencies of inconclusive entries are left out as doubtful fits. Potency is read from the fitted curve at half-maximal effect; tags tell the direction and shape of the fitted curve.",
  "data": [
    {"experiment": "qHTS for induction of synthetic lethality in tumor cells producing 2HG: qHTS for the HT-1080-IDH1KD cell line;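 as to activity, negative = toxicity: 0% = DMSO wells and -100% = cell-free medium wells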", "settings": "HT-1080 IDH1 knockdown viability, ATP luminescence, 48 h; activity, negative = toxicity: at 46.1 µM (top of the series) unless noted", "method_in_brief": "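% activity derives from luminescence (CellTiter-Glo), normalised to DMSO and no-cell wells. HT-1080-IDH1KD cells, 750/well, had 48 h compound exposure at 37 °C.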", "values": [
      {"smiles": "Cn1c(=O)c2cc(NC(=O)NCc3ccc(F)cc3)ccc2n1Cc1cccc(C(F)(F)F)c1", "Potency": "inconclusive [cytotoxic, single point]"},
      {"smiles": "CSc1sccc1/C=C(/C#N)C(=O)c1ccco1", "Potency": "inconclusive [cytotoxic, single point]"},
      {"smiles": "CC(C)=CCCC1(C)C=Cc2c(ccc3c2[nH]c2cc(O)c(C)cc23)O1", "note": "(centres undefined)", "Potency": "inconclusive [cytotoxic, single point]"},
      {"smiles": "O=C(CN1C(=O)/C(=C/c2ccc(Cl)cc2)SC1=S)NC1C=CS(=O)(=O)C1", "note": "(centres undefined)", "activity, negative = toxicity": "inactive: -1.92%"},
      {"smiles": "CCOc1ccc(C(=O)/C=C/c2ccc(SC)cc2)cc1", "Potency": "inconclusive [cytotoxic, single point]"},
      {"smiles": "CCC(C)Oc1cccc(OCCCCN2C(=O)NC(C)(C)C2=O)c1", "note": "(centres undefined)", "Potency": "inconclusive [cytotoxic, single point]"},
      {"smiles": "CSc1ccc(Cn2c(C)c(C(=O)NCCC#N)sc2=O)cc1", "Potency": "inconclusive [cytotoxic, single point]"},
      {"smiles": "Cc1nc2ccc(NC(=O)NCCCO)cc2s1", "activity, negative = toxicity": "inactive: 11.7%"},
      {"smiles": "C=CCNC(=S)N/N=C/c1ccc(OCc2ccccc2Cl)cc1", "Potency": "active: 3.16 µM"},
      {"smiles": "CCCCN1C(=O)C(=O)NC[C@@H]1CC1CCCCC1", "activity, negative = toxicity": "inactive: -5.11%"},
      {"smiles": "O=C1CCCC(O)=C1C=Nc1ccc(O)cc1", "activity, negative = toxicity": "inactive: -1.76%"},
      {"smiles": "COc1ccc2sc(N(CCCN(C)C)C(=O)c3ccc(S(=O)(=O)N4CCc5ccccc5C4)cc3)nc2c1", "Potency": "inconclusive [cytotoxic, single point]"},
      {"smiles": "CCOC(=O)N1CCN(Cc2nc(-c3ccc(Cl)cc3)no2)CC1", "activity, negative = toxicity": "inactive: -4.46%"},
      {"smiles": "COc1cccc(NC2=C(NCCO)C(=O)c3ccccc3C2=O)c1", "Potency": "inconclusive [cytotoxic, single point]"},
      {"smiles": "N/C(=N\\OC(=O)CCc1ccccc1)c1ccc(Br)cc1", "activity, negative = toxicity": "inconclusive: 38.8%"},
      {"smiles": "CCc1nnc(NC(=O)CCc2ccc(C)o2)s1", "Potency": "inconclusive [rising, single point]"},
      {"smiles": "CCC(C(=O)NC1CCCCC1)n1c(SCc2ccc(F)cc2)nc2ccncc21", "note": "(centres undefined)", "activity, negative = toxicity": "inactive: -12.3%"},
      {"smiles": "CCc1nc2ccccc2c(C(=O)OCc2nc3ccccc3c(=O)[nH]2)c1C", "Potency": "active: 18.4 µM"},
      {"smiles": "CCCc1nc2ccc(C)cn2c1Cc1cccc(F)c1", "Potency": "inconclusive [cytotoxic, single point]"},
      {"smiles": "O=C1CC(c2ccccc2)CN1Cc1ccccc1", "note": "(centres undefined)", "Potency": "inconclusive [cytotoxic, single point]"},
      {"smiles": "CCCCn1c(-c2nonc2NC(=O)c2ccccc2Cl)nc2ccccc21", "activity, negative = toxicity": "inactive: -4.47%"},
      {"smiles": "CCCCCCn1c(N2CCN(c3ccccc3)CC2)nc2c1c(=O)[nH]c(=O)n2C", "Potency": "inconclusive [cytotoxic, single point]"},
      {"smiles": "CCN(CC)c1ccc(NC(=O)c2ccc3c(c2)OCO3)cc1", "Potency": "active: 20.6 µM"},
      {"smiles": "Cc1cccc(/N=C/c2c(O)[nH]c3ccccc23)n1", "Potency": "inconclusive [cytotoxic, single point]"},
      {"smiles": "CCOC(=O)/C(=C\\c1ccc([N+](=O)[O-])o1)NC(=O)c1ccccc1", "Potency": "inconclusive [cytotoxic, single point]"},
      {"smiles": "O=C(CCl)NC(=O)NC12CC3CC(CC(C3)C1)C2", "activity, negative = toxicity": "inactive: -0.322%"},
      {"smiles": "COc1ccc(-c2cc(NC=O)c3ncc(-c4cccc(C(F)(F)F)c4)n3c2)cc1OC", "Potency": "active: 20.6 µM"},
      {"smiles": "CCOC(=O)C1CCN(Cc2cnc(Oc3ccc(OC)cc3)s2)CC1", "activity, negative = toxicity": "inactive: 7.04%"},
      {"smiles": "COc1cc2nc(CN3CCN(S(=O)(=O)c4ccccc4[N+](=O)[O-])CC3)[nH]c(=O)c2cc1OC", "Potency": "inconclusive [cytotoxic, partial curve]"},
      {"smiles": "Cc1ccccc1C(=O)/C(C#N)=N/Nc1c(C)n(C)n(-c2ccccc2)c1=O", "Potency": "inconclusive [cytotoxic, full curve]"},
      {"smiles": "Cc1ccc(OCC(=O)NCCNC(=O)c2ccncc2)cc1", "activity, negative = toxicity": "inactive: 4.42%"},
      {"smiles": "CSCC[C@H](NC(=O)c1ccc(Cl)c(S(=O)(=O)N2CCCC2)c1)c1nc2ccccc2[nH]1", "Potency": "inconclusive [cytotoxic, single point]"},
      {"smiles": "CCOc1cc(/C=N/Nc2nnc(C)n2N)ccc1OC(C)=O", "Potency": "active: 20.6 µM"},
      {"smiles": "O=C(Nc1nnc(S(=O)(=O)N2CCCCCC2)s1)c1cccc(Br)c1", "Potency": "inconclusive [cytotoxic, single point]"},
      {"smiles": "Fc1cc2[nH]c(=S)[nH]c2c(Br)c1N1CCSCC1", "Potency": "inconclusive [cytotoxic, single point]"},
      {"smiles": "S=C(NCc1ccc(Cl)cc1Cl)NC1CCCCC1", "Potency": "inconclusive [cytotoxic, single point]"},
      {"smiles": "COc1ccc2nc(N=NC3=C(O)CC(C)(C)CC3=O)sc2c1", "Potency": "inconclusive [cytotoxic, full curve, poor fit]"},
      {"smiles": "Cc1ccc(NC(=O)C(=O)NCc2ccccn2)cc1", "activity, negative = toxicity": "inconclusive: 35.5%"},
      {"smiles": "COCCOC(=O)C1=C(C)N=C2SCCC(=O)N2C1c1ccc(OC(=O)c2ccco2)cc1", "note": "(centres undefined)", "Potency": "inconclusive [cytotoxic, single point]"},
      {"smiles": "CCOc1cc2[nH]c(=S)n(Cc3ccc(C)o3)c(=O)c2cc1OCC", "activity, negative = toxicity": "inactive: 11.6%"},
      {"smiles": "CC(Nc1nc(Nc2ccc(F)cc2)nc(SCC(N)=O)n1)c1ccccc1", "note": "(centres undefined)", "Potency": "inconclusive [cytotoxic, partial curve]"},
      {"smiles": "CCCCNc1c(-c2ccc(-c3ccc(C(C)=O)cc3)c(OC)c2)nc2cnccn12", "Potency": "inconclusive [cytotoxic, single point]"},
      {"smiles": "Clc1ccc(Cl)c(OCCCCN2CCNCC2)c1", "Potency": "inconclusive [cytotoxic, single point]"},
      {"smiles": "NC(Cc1ccc(F)cc1)c1csc(Nc2ccc(C(F)(F)F)cn2)n1", "note": "(centres undefined)", "Potency": "inconclusive [cytotoxic, single point]"},
      {"smiles": "COc1ccc(NC(=O)Nc2cc(C)ccc2F)cc1OC", "Potency": "inconclusive [cytotoxic, single point]"},
      {"smiles": "Oc1ccccc1/C=N/NC(=S)NC1CC2CCC1C2", "note": "(centres undefined)", "Potency": "inconclusive [cytotoxic, single point]"},
      {"smiles": "Cc1cc2nc(C)n(CCCNC(=O)Nc3ccc(C#N)cc3)c2cc1C", "Potency": "inconclusive [cytotoxic, single point]"},
      {"smiles": "Cc1ccnc(NC(=O)CCCc2c[nH]c3ccccc23)c1", "Potency": "inconclusive [cytotoxic, single point]"},
      {"smiles": "CCOC(=O)C1=C(COC(=O)c2ccc(Cl)nc2)NC(=O)NC1C", "note": "(centres undefined)", "activity, negative = toxicity": "inactive: 12.1%"},
      {"smiles": "CC[C@]12c3[nH]c4ccc(OC)cc4c3CCN1C(=O)C(CC(=O)NCCCOC)C[C@@H]2C(=O)N1CCN(C(=O)C2CC2)CC1", "note": "(some centres undefined)", "activity, negative = toxicity": "inactive: 3.47%"},
      {"smiles": "CC(OC(=O)c1ccccc1Br)C(=O)Nc1nc(-c2cccc([N+](=O)[O-])c2)cs1", "note": "(centres undefined)", "activity, negative = toxicity": "inconclusive: 33.3%"},
      {"smiles": "COc1cc(/C=N/NC(=O)c2nnn(-c3nonc3N)c2C)ccc1OCc1ccc(Cl)cc1", "activity, negative = toxicity": "inactive: 10.9%"},
      {"smiles": "Cc1cc(C)cc(OCC(=O)N/N=C/c2ccc([N+](=O)[O-])o2)c1", "activity, negative = toxicity": "inactive: -11.9%"},
      {"smiles": "COc1cc(C(=O)NC2CCN(Cc3nnnn3Cc3ccc(F)cc3)CC2)cc(OC)c1OC", "Potency": "inconclusive [cytotoxic, single point]"},
      {"smiles": "O=C(NC12CC3CC(CC(C3)C1)C2)c1ccc(COc2ccc(Cl)cc2[N+](=O)[O-])o1", "Potency": "inconclusive [cytotoxic, single point]"},
      {"smiles": "CN(CC(=O)Nc1ccc(Cl)c(C(F)(F)F)c1)C(=O)CCN1C(=O)C2CCCCC2C1=O", "note": "(centres undefined)", "activity, negative = toxicity": "inactive: 8.68%"},
      {"smiles": "COc1cc2c(C(=O)N3CCOCC3)c(CSc3ccccc3)n(C)c2cc1Br", "Potency": "inconclusive [cytotoxic, single point]"},
      {"smiles": "O=C(COc1ccc2ccccc2c1)NCC(=O)N/N=C/c1ccco1", "Potency": "inconclusive [cytotoxic, single point]"},
      {"smiles": "CC(C)Cc1ccc(CN2CCCC(NC(=O)c3cccc(-n4cnnc4)c3)C2)cc1", "note": "(centres undefined)", "Potency": "inconclusive [cytotoxic, single point]"},
      {"smiles": "CC(C)N(C)c1ncnc2c1ncn2[C@H]1CN(Cc2ccc(-c3ccccc3)cc2)C[C@@H](CO)O1", "Potency": "inconclusive [cytotoxic, single point]"},
      {"smiles": "COc1ccc2[nH]c3c(c2c1)CCN1C(=O)C(CC(=O)NCc2ccco2)C[C@H](C(=O)N(C(C)C)C(C)C)[C@@]31C", "note": "(some centres undefined)", "activity, negative = toxicity": "inactive: -7.78%"},
      {"smiles": "CCCC(C)c1nnc(NC(=O)COc2ccc3c(c2)OCO3)s1", "note": "(centres undefined)", "Potency": "inconclusive [cytotoxic, partial curve]"},
      {"smiles": "CC(C)Nc1nc(NCc2ccccc2)c2sccc2n1", "Potency": "inconclusive [cytotoxic, single point]"},
      {"smiles": "CC(=O)c1ccc(-c2cnc3c(NC=O)cc(-c4ccc(N5CCN(C)CC5)cc4)cn23)cc1", "Potency": "inconclusive [cytotoxic, single point]"},
      {"smiles": "COc1ccccc1-c1c(C)nn2c(N3CCN(Cc4ccccc4)CC3)cc(C)nc12", "Potency": "inconclusive [cytotoxic, single point]"},
      {"smiles": "COc1ccc(CCn2c(C(C)C)nc3c(c(=O)c4ccccc4n3C)c2=O)cc1", "Potency": "inconclusive [cytotoxic, single point]"},
      {"smiles": "O=[N+]([O-])c1cccc(/C=N/Nc2nc(NCc3ccccc3)nc(N3CCOCC3)n2)c1O", "Potency": "inconclusive [cytotoxic, partial curve]"},
      {"smiles": "O=C(COc1ccc(Cl)cc1Cl)N1CCCN(C(=O)COc2ccc(Cl)cc2Cl)CC1", "Potency": "inconclusive [cytotoxic, partial curve]"},
      {"smiles": "COc1ccc(C(=O)NNC(=S)NC(=O)c2ccc(F)cc2)cc1Br", "Potency": "inconclusive [cytotoxic, single point]"}
    ]}
  ]
}
